# The other results are listed elsewhere or left out.
# B1: PX9961T-pdi-555-33-555 (Parabacteroides distasonis) (protein)
# chain: FDEETAFQSPTLVYVNTVASLYNNMFKIMGNDRHVYDLNTFSSDEAMLPCRIGDWEDGGLWQNIFLHRWGTMNDLTKNSWDFLYEQIGKCNQSVDKLQAFAEEQPDVEYFKVYLEEVRAVRAFFYYELLDLFARVPLVTSSTTPMSEVKQSERSVVFNFVRSELEEALPYLSDNRSNQKGEYYGRITKPVAYMILAKLALNAEVYADDNWTDGNRPAGKNIKFTVDGKEMNAWEATIAYVDKLEALGYKLQGNFSENFAVANETSVENIFTVPMDPVAYPDAKDYNLVRTRHYDHATAYGQSGWNGSCATVKAMNVFKFGTADEDPRCKLTYFTGEVTGPDGKTIYTEWDGQKVPLKYEPNAPKVYMDASDGLLVKTAGARMAKYEFDQNAQDGGNLHGNDCVIFRFADALLMKAEAKIRLGQNGDDEVNQVRNRVGAKPLQNVTLDTLLDERMLELAWEGVRRQDLIRFGKFTEATVDRYVGVKHFASSLDYQEDKTGYTTVFSIYADILSLNPNLTQNPGY
# What was measured:
# Experiment in all cases: glycan array binding signal (z-score within array); higher = stronger binding
# Conditions in all cases: glycan notation: IUPAC condensed, linker removed
# [1] = target: GlcNAc(b1-2)[GlcNAc(b1-4)]Man(a1-3)[GlcNAc(b1-4)][GlcNAc(b1-2)[GlcNAc(b1-6)]Man(a1-6)]Man(b1-4)GlcNAc(b1-4)GlcNAc
# Method in brief: (§1)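 Glycan array data were curated from 3228 arrays in the Consortium for Functional Glycomics database and kept only where the protein sequence was available. Glycan names were converted to IUPAC-condensed notation, and columns mapping to the same glycan were averaged. The binding signal is a within-array Z-score, averaged across arrays of the same protein sequence at different concentrations or buffers and across linkers. Negative Z-scores can be read as non-binding.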
# [2] = target: GlcNAc(b1-2)[GlcNAc(b1-4)]Man(a1-3)[GlcNAc(b1-4)][GlcNAc(b1-2)[GlcNAc(b1-6)]Man(a1-6)]Man(b1-4)GlcNAc(b1-4)[Fuc(a1-6)]GlcNAc
# Method in brief: as §1
# [3] = target: GlcNAc(b1-2)[GlcNAc(b1-6)]Man(a1-6)[GlcNAc(b1-2)Man(a1-3)]Man(b1-4)GlcNAc(b1-4)GlcNAc
# Method in brief: as §1
# [4] = target: GlcNAc(b1-2)[GlcNAc(b1-6)]Man(a1-6)[GlcNAc(b1-2)Man(a1-3)]Man(b1-4)GlcNAc(b1-4)[Fuc(a1-6)]GlcNAc
# Method in brief: as §1
# [5] = target: GlcNAc(b1-2)[GlcNAc(b1-6)]Man(a1-6)[GlcNAc(b1-4)][GlcNAc(b1-2)Man(a1-3)]Man(b1-4)GlcNAc(b1-4)GlcNAc
# Method in brief: as §1
# [6] = target: GlcNAc(b1-3)Fuc
# Method in brief: as §1
# [7] = target: GlcNAc(b1-3)Gal
# Method in brief: as §1
# [8] = target: GlcNAc(b1-3)Gal(b1-3)GalNAc
# Method in brief: as §1
# [9] = target: GlcNAc(b1-3)Gal(b1-4)Glc
# Method in brief: as §1
# [10] = target: GlcNAc(b1-3)Gal(b1-4)GlcNAc
# Method in brief: as §1
# [11] = target: GlcNAc(b1-3)Gal(b1-4)GlcNAc(b1-2)Man(a1-3)[GlcNAc(b1-3)Gal(b1-4)GlcNAc(b1-2)Man(a1-6)]Man(b1-4)GlcNAc(b1-4)GlcNAc
# Method in brief: as §1
# [12] = target: GlcNAc(b1-3)Gal(b1-4)GlcNAc(b1-2)Man(a1-3)[GlcNAc(b1-3)Gal(b1-4)GlcNAc(b1-2)Man(a1-6)]Man(b1-4)GlcNAc(b1-4)[Fuc(a1-6)]GlcNAc
# Method in brief: as §1
# [13] = target: GlcNAc(b1-3)Gal(b1-4)GlcNAc(b1-2)[GlcNAc(b1-3)Gal(b1-4)GlcNAc(b1-6)]Man(a1-6)[GlcNAc(b1-3)Gal(b1-4)GlcNAc(b1-2)Man(a1-3)]Man(b1-4)GlcNAc(b1-4)GlcNAc
# Method in brief: as §1
# [14] = target: GlcNAc(b1-3)Gal(b1-4)GlcNAc(b1-3)Gal(b1-4)GlcNAc
# Method in brief: as §1
# [15] = target: GlcNAc(b1-3)Gal(b1-4)GlcNAc(b1-3)Gal(b1-4)GlcNAc(b1-2)Man(a1-3)[GlcNAc(b1-3)Gal(b1-4)GlcNAc(b1-3)Gal(b1-4)GlcNAc(b1-2)Man(a1-6)]Man(b1-4)GlcNAc(b1-4)GlcNAc
# Method in brief: as §1
# [16] = target: GlcNAc(b1-3)Gal(b1-4)GlcNAc(b1-3)Gal(b1-4)GlcNAc(b1-2)Man(a1-3)[GlcNAc(b1-3)Gal(b1-4)GlcNAc(b1-3)Gal(b1-4)GlcNAc(b1-2)Man(a1-6)]Man(b1-4)GlcNAc(b1-4)[Fuc(a1-6)]GlcNAc
# Method in brief: as §1
# [17] = target: GlcNAc(b1-3)Gal(b1-4)GlcNAc(b1-3)Gal(b1-4)GlcNAc(b1-2)[GlcNAc(b1-3)Gal(b1-4)GlcNAc(b1-3)Gal(b1-4)GlcNAc(b1-6)]Man(a1-6)[GlcNAc(b1-3)Gal(b1-4)GlcNAc(b1-3)Gal(b1-4)GlcNAc(b1-2)Man(a1-3)]Man(b1-4)GlcNAc(b1-4)[Fuc(a1-6)]GlcNAc
# Method in brief: as §1
# [18] = target: GlcNAc(b1-3)Gal(b1-4)GlcNAc(b1-3)Gal(b1-4)GlcNAc(b1-3)Gal(b1-4)GlcNAc(b1-2)Man(a1-3)[GlcNAc(b1-3)Gal(b1-4)GlcNAc(b1-3)Gal(b1-4)GlcNAc(b1-3)Gal(b1-4)GlcNAc(b1-2)Man(a1-6)]Man(b1-4)GlcNAc(b1-4)GlcNAc
# Method in brief: as §1
# [19] = target: GlcNAc(b1-3)Gal(b1-4)GlcNAc(b1-3)Gal(b1-4)GlcNAc(b1-3)Gal(b1-4)GlcNAc(b1-2)Man(a1-3)[GlcNAc(b1-3)Gal(b1-4)GlcNAc(b1-3)Gal(b1-4)GlcNAc(b1-3)Gal(b1-4)GlcNAc(b1-2)Man(a1-6)]Man(b1-4)GlcNAc(b1-4)[Fuc(a1-6)]GlcNAc
# Method in brief: as §1
# [20] = target: GlcNAc(b1-3)Gal(b1-4)GlcNAc(b1-3)Gal(b1-4)GlcNAc(b1-3)Gal(b1-4)GlcNAc(b1-2)[GlcNAc(b1-3)Gal(b1-4)GlcNAc(b1-3)Gal(b1-4)GlcNAc(b1-3)Gal(b1-4)GlcNAc(b1-6)]Man(a1-6)[GlcNAc(b1-3)Gal(b1-4)GlcNAc(b1-3)Gal(b1-4)GlcNAc(b1-3)Gal(b1-4)GlcNAc(b1-2)Man(a1-3)]Man(b1-4)GlcNAc(b1-4)[Fuc(a1-6)]GlcNAc
# Method in brief: as §1
# [21] = target: GlcNAc(b1-3)Gal(b1-4)GlcNAc(b1-3)Gal(b1-4)GlcNAc(b1-3)Gal(b1-4)GlcNAc(b1-3)Gal(b1-4)GlcNAc(b1-2)Man(a1-3)[GlcNAc(b1-3)Gal(b1-4)GlcNAc(b1-3)Gal(b1-4)GlcNAc(b1-3)Gal(b1-4)GlcNAc(b1-3)Gal(b1-4)GlcNAc(b1-2)Man(a1-6)]Man(b1-4)GlcNAc(b1-4)GlcNAc
# Method in brief: as §1
# [22] = target: GlcNAc(b1-3)Gal(b1-4)GlcNAc(b1-3)Gal(b1-4)GlcNAc(b1-3)Gal(b1-4)GlcNAc(b1-3)Gal(b1-4)GlcNAc(b1-2)Man(a1-3)[GlcNAc(b1-3)Gal(b1-4)GlcNAc(b1-3)Gal(b1-4)GlcNAc(b1-3)Gal(b1-4)GlcNAc(b1-3)Gal(b1-4)GlcNAc(b1-2)Man(a1-6)]Man(b1-4)GlcNAc(b1-4)[Fuc(a1-6)]GlcNAc
# Method in brief: as §1
# [23] = target: GlcNAc(b1-3)Gal(b1-4)GlcNAc(b1-3)Gal(b1-4)GlcNAc(b1-3)Gal(b1-4)GlcNAc(b1-3)Gal(b1-4)GlcNAc(b1-2)[GlcNAc(b1-3)Gal(b1-4)GlcNAc(b1-3)Gal(b1-4)GlcNAc(b1-3)Gal(b1-4)GlcNAc(b1-3)Gal(b1-4)GlcNAc(b1-6)]Man(a1-6)[GlcNAc(b1-3)Gal(b1-4)GlcNAc(b1-3)Gal(b1-4)GlcNAc(b1-3)Gal(b1-4)GlcNAc(b1-3)Gal(b1-4)GlcNAc(b1-2)Man(a1-3)]Man(b1-4)GlcNAc(b1-4)[Fuc(a1-6)]GlcNAc
# Method in brief: as §1
# [24] = target: GlcNAc(b1-3)Gal(b1-4)GlcNAc(b1-3)Gal(b1-4)GlcNAc(b1-3)GalNAc
# Method in brief: as §1
# [25] = target: GlcNAc(b1-3)Gal(b1-4)GlcNAc(b1-3)GalNAc
# Method in brief: as §1
# [26] = target: GlcNAc(b1-3)Gal(b1-4)GlcNAc(b1-3)[GlcNAc(b1-3)Gal(b1-4)GlcNAc(b1-3)]GalNAc
# Method in brief: as §1
# [27] = target: GlcNAc(b1-3)Gal(b1-4)GlcNAc(b1-6)[Gal(b1-3)]GalNAc
# Method in brief: as §1
# [28] = target: GlcNAc(b1-3)Gal(b1-4)GlcNAc(b1-6)[GlcNAc(b1-3)Gal(b1-3)]GalNAc
# Method in brief: as §1
# [29] = target: GlcNAc(b1-3)Gal(b1-4)GlcNAc(b1-6)[GlcNAc(b1-3)]Gal(b1-4)GlcNAc
# Method in brief: as §1
# [30] = target: GlcNAc(b1-3)GalNAc
# Method in brief: as §1
# [31] = target: GlcNAc(b1-3)Man
# Method in brief: as §1
# [32] = target: GlcNAc(b1-3)[GlcNAc(b1-4)][GlcNAc(b1-6)]GlcNAc
# Method in brief: as §1
# [33] = target: GlcNAc(b1-3)[GlcNAc(b1-6)]Gal(b1-4)GlcNAc
# Method in brief: as §1
# [34] = target: GlcNAc(b1-3)[GlcNAc(b1-6)]GalNAc
# Method in brief: as §1
# [35] = target: GlcNAc(b1-4)Gal(b1-4)GlcNAc
# Method in brief: as §1
# [36] = target: GlcNAc(b1-4)GlcNAc
# Method in brief: as §1
# [37] = target: GlcNAc(b1-4)GlcNAc(b1-4)GlcNAc
# Method in brief: as §1
# [38] = target: GlcNAc(b1-4)GlcNAc(b1-4)GlcNAc(b1-4)GlcNAc(b1-4)GlcNAc
# Method in brief: as §1
binder,measurement,setting,value
B1,glycan array binding signal (z-score),[1],-0.347
same,glycan array binding signal (z-score),[2],-0.051
same,glycan array binding signal (z-score),[3],-0.282
same,glycan array binding signal (z-score),[4],0.633
same,glycan array binding signal (z-score),[5],-0.004
same,glycan array binding signal (z-score),[6],-0.704
same,glycan array binding signal (z-score),[7],-0.188
same,glycan array binding signal (z-score),[8],0.567
same,glycan array binding signal (z-score),[9],-0.25
same,glycan array binding signal (z-score),[10],0.103
same,glycan array binding signal (z-score),[11],-0.045
same,glycan array binding signal (z-score),[12],1.18
same,glycan array binding signal (z-score),[13],0.276
same,glycan array binding signal (z-score),[14],-0.139
same,glycan array binding signal (z-score),[15],1.51
same,glycan array binding signal (z-score),[16],0.65
same,glycan array binding signal (z-score),[17],-0.298
same,glycan array binding signal (z-score),[18],-0.569
same,glycan array binding signal (z-score),[19],0.022
same,glycan array binding signal (z-score),[20],-0.474
same,glycan array binding signal (z-score),[21],-0.198
same,glycan array binding signal (z-score),[22],0.229
same,glycan array binding signal (z-score),[23],-0.523
same,glycan array binding signal (z-score),[24],-0.348
same,glycan array binding signal (z-score),[25],-0.162
same,glycan array binding signal (z-score),[26],-0.346
same,glycan array binding signal (z-score),[27],0.367
same,glycan array binding signal (z-score),[28],0.58
same,glycan array binding signal (z-score),[29],-0.115
same,glycan array binding signal (z-score),[30],-0.292
same,glycan array binding signal (z-score),[31],0.342
same,glycan array binding signal (z-score),[32],0.158
same,glycan array binding signal (z-score),[33],-0.306
same,glycan array binding signal (z-score),[34],-0.4
same,glycan array binding signal (z-score),[35],-0.3
same,glycan array binding signal (z-score),[36],-0.548
same,glycan array binding signal (z-score),[37],-0.187
same,glycan array binding signal (z-score),[38],0.179

# — the supplement of paper PMC8728848
